# Assay results: the supplement of paper PMC11417369
# ± gives the standard deviation of the averaged measurements. The list shows a part of the results.
# Tested on: PfAP2-I AP2 domain 3 (GST-tagged)
# Experiment: gcPBM binding intensity (ln(normalized median fluorescence intensity)); higher = stronger DNA binding
# Summary of the method: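 For binding intensity, the highest Masliner-normalised natural-log median intensity across replicate spots of either probe orientation was taken. Protein bound to the array was stained with Alexa488 anti-GST antibody and scanned at 488 nm. The protein, GST-tagged P. falciparum DNA-binding domains from E. coli at about 25 μg on average, had been applied for 1 h to an Agilent 4 × 180k array of primer-extended double-stranded 36-bp intergenic genomic probes and negative controls.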
row,Sequence,gcPBM binding intensity (ln)
1,AGGTTAATCGAAATTGCATGTGACGAAAAATCAAAA [TGCATGCA_site666],7.7 ± 0.78
2,TTGTATAATTTAACAAGTACAAAATAAATTTGTATA [XGTACX_site5505],7.46 ± 0.35
3,TTCAATTAAAAAATATGTACGCATAAATTGATATAT [XGTACX_site4289],8.01 ± 0.37
4,TTTTATGGAAAGTGTTGTACATATTTTTGTATATGT [XGTACX_site7356],7.96 ± 0.2
5,AAAAGAGAAACATTTACACACAAATATAGATATATG [CACACA_site1027],7.51 ± 0.57
6,ATAGTATACGGACACACACACACACCGATATATATA [CACACA_site5032],8.3 ± 0.65
7,TATCTTATATTTACACGTACGTAGAATTTATAAGTT [XGTACX_site3460],8 ± 0.3
8,TTTTATTAATATTATTTATCTTCTCAAAAGATATAT [XGTACX_negctrl_site202],7.42 ± 0.58
9,CACACGTATAAATATACACACTAAAATACACGCACA [CACACA_site7876],8.58
10,ATATATATATATATATGTACATATTTATTTATTTAT [XGTACX_site5161],9.31 ± 0.31
11,AGCACAGACTAATAAACACACACATATATATATATA [CACACA_site8021],9.3 ± 0.35
12,CTCATTCTTTTTTGATGTACTTTTTTTTTTTAAGTT [XGTACX_site2875],8.12 ± 0.28
13,TTTTTTTTTTTTTTTTTGCAATATATTTTAAAAAAG [CACACA_negctrl_site25],8.14 ± 0.7
14,TTTTTTTTTTTTTTTTTTTTTTGTGAAACTAAGTAA [CACACA_negctrl_site273],8.18 ± 0.78
15,GGAAGAATATATAGGACACACATACAATAATAAATA [CACACA_site6124],7.93 ± 0.49
16,AACTTCTTTTTTATAACACACAAAATATAAATACAA [CACACA_site4313],8.15 ± 0.34
17,TAATACAAAAAGAAAAGTACATGTTAATTATTATTT [XGTACX_site2196],7.67 ± 0.43
18,AACATATAAATGATATGTACACACATTTATATATAT [XGTACX_site7364],8.34 ± 0.75
19,CAAATTAAATATTATGCATGTACCAAACATCCTACC [TGCATGCA_site35],8.1 ± 0.5
20,TTTAATATGTATTTTTTTTTTTTTTTTTTTTTTTTT [XGTACX_negctrl_site440],9.96 ± 0.13
21,TATAACAGGAATTATATATATATATATATATATTAT [CACACA_negctrl_site911],8.17 ± 0.64
22,CTTTTTTTAGTTAGGTGTACAATTTGTTATTATTAG [XGTACX_site1507],8.18 ± 0.26
23,TTTTTTTTTTTTTTTTGTACATATTTCTTATAAGTG [XGTACX_site6459],8.13 ± 0.61

row,Sequence,gcPBM binding intensity (ln)
1,CATAGGATTATACTTTTGGAATATTATTAAATATGT [XGTACX_negctrl_site75],7.41 ± 0.52
2,TTTATTTTTTAATGTTGTACAATGTTGTTTAATCAA [XGTACX_site6489],7.88 ± 0.26
3,TTTTTTTCTTTTCAAACACACAATTGGTATATATTA [CACACA_site3320],7.8 ± 0.57
4,TCATCCGTTTTAAGAAGTACATATTTGAACATATAA [XGTACX_site8040],7.76 ± 0.29
5,ACATGTCAAACATTTGCACACAAAAAAATAAAAATT [CACACA_site691],9.43 ± 0.18
6,TATATATATATGTGCACACATATATAATATGTATAA [CACACA_site715],10.1 ± 0.42
7,AAATAACACATATATACACACATATAACTATAATAT [CACACA_site7298],7.83 ± 0.54
8,TATATACAAAAATGCACACGAAAAGTAATATATATA [CACACA_site4173],9.04 ± 0.83
9,TATATAAAAATCAATTGTACTTTTTTTTTTTTTTTT [XGTACX_site7327],8.68 ± 0.42
10,ATATATAAAATTATATGTACATATATAATATATATA [XGTACX_site529],8.28 ± 0.33
11,TAGAACAAATAAAACACACACATATATATATATATG [CACACA_site2768],8.06 ± 0.41
12,ATTAAAAACGGGTGTACACATATATAAATATATATA [CACACA_site4539],8.21 ± 0.57
13,AGTAGCATATTCTATTGTACATATATATATATATAT [XGTACX_site2980],9.39 ± 0.61
14,TGTATAAAGATATATACACACATATTTATTTATATA [CACACA_site6493],7.52 ± 0.35
15,TACAAAATAACTAGCACACATATGTATAAACCTATA [CACACA_site3718],8.01 ± 0.29
16,ATATGTATATATGTATGTACGTACAAATTGTTGTAA [XGTACX_site8832],8.46 ± 0.042
17,TTAATACATTAAATATGTACTTATATATCTCAACTA [XGTACX_site3997],7.53 ± 0.48
18,ACCTGAAGAGTCAAACGTACAAATATTATAAAATGA [XGTACX_site3188],7.69 ± 0.45
19,GTTATATTTTTTTTTTGTACATAATATTGTATTGAC [XGTACX_site6338],8.18 ± 0.61
20,TATAAATACAGATACACACACACACCGATATATATA [CACACA_site5271],8.24 ± 0.62
21,AATATATAAATCTATTGTACATAAAGAGGATAATAA [XGTACX_site1022],7.92 ± 0.47
22,GATGATTATATATATACGCACACTTTTTTTTTTTTT [CACACA_site2652],8.37 ± 0.45
23,ATCACAAAATGGAATGTTCTATGATATATATGTATA [XGTACX_negctrl_site460],7.45 ± 0.41

row,Sequence,gcPBM binding intensity (ln)
1,TGTAAATATTTATTCACACATAATCAATTAGAAAAA [CACACA_site5944],7.54 ± 0.65
2,TACTTACTTACTTACTCACACACATATACAAAGAAA [CACACA_site3348],8.59 ± 0.59
3,TATATATATTTTTATGCACACACAAAGAAAATTTTC [CACACA_site8931],10.1 ± 0.24
4,AATACAGATAATACAACACACAAGTAATATAAACCT [CACACA_site5900],7.82 ± 0.61
5,TTGTTACTGTTTTGGTGTACAAAAAAAAAAAATATA [XGTACX_site5762],8.02 ± 0.54
6,AAAAAAAAAAAAAACACACACACAATAGTATATAAA [CACACA_site957],8.22 ± 0.54
7,AATATAAATAAAAACACACACAATGGTACATATATA [CACACA_site3671],7.84 ± 0.54
8,ATTGCAAGTTACTTGTGTACTTATAAGATTAAAAGA [XGTACX_site7696],8.28 ± 0.28
9,TAATAATACCCAAGCACACACACACCCATATATATA [CACACA_site4831],8.3 ± 0.63
10,TTTAAATCGTTAAAAACACACAAAAAAAATCAATTA [CACACA_site2519],7.49 ± 0.47
11,TACTGTGATAGCACCACACACGCAAAAGTGGGTATA [CACACA_site4749],9.55 ± 0.34
12,TCTATACCAGAAAAGGGTACATATTTTGGATTGAAC [XGTACX_site8402],7.72 ± 0.61
13,ATTATGCACCAACACACACACACACTCCTAAAAAAT [CACACA_site8822],11.4 ± 0.95
14,TTTCTTTTAATAATTAAATATTTATTTATGATTATA [TGCATGCA_negctrl_site30],7.55 ± 0.51
15,TACATACATATATTATGTACATATTTTATTTTTATT [XGTACX_site1642],7.72 ± 0.27
16,AAGCATACATCAAGCACACACACACCCACAGAGACA [CACACA_site4362],8.33 ± 0.21
17,AAAAAAAATTCGTGTGTGCGCATATATAATATATAA,8.46 ± 0.56
18,TATGTAGTTTTAAAGTGTACTTATATATATTAATTG [XGTACX_site378],7.76 ± 0.23
19,ATAAATATATATATCACACATATATAATTATATATA [CACACA_site4787],7.88 ± 0.51
20,ATAATAAAAATATATACATGCATTATTATATATATA [TGCATGCA_site799],8.54 ± 0.32
21,CAACAATTTCGTCATACACACATTCAGAATATAGAT [CACACA_site7166],7.61 ± 0.57
22,TTATTTCGAAGAAAATGTACATATATAAATATATAC [XGTACX_site3308],7.46 ± 0.39
23,ATAATATTTTTTAATTGTACGTTCCATTTTTTTAAA [XGTACX_site1227],7.9 ± 0.65

row,Sequence,gcPBM binding intensity (ln)
1,GATAATTACGGACACACACACACACGCACAACTAAA [CACACA_site7254],8.62 ± 0.17
2,ACTATCATTCATAGGTGTACCTAAATATATATATAT [XGTACX_site1696],9.12 ± 0.39
3,CGAATATATTCTAGACGTACTATATAATATATATAT [XGTACX_site4953],8.765 ± 0.049
4,TCTTTTTCTTCTTATGTGCACATCAATTATGCTTCT,9.49 ± 0.17
5,AGAACAATTCTGTGGTGTACCAAAAAAAATTTAATT [XGTACX_site8082],7.96 ± 0.64
6,ATATTTAAATTTTGCACACGCATATGAAATTAGGAC [CACACA_site1035],9.19 ± 0.085
7,AAAATAAATAAATATACACACCATATTTATATTTTT [CACACA_site7361],7.75 ± 0.62
8,TAAATGAATTTTACTATACACACGTATACATTTGTA [CACACA_site1210],7.42 ± 0.64
9,TAATTTGTTATTTATTGTACAAACATTATATGTTAA [XGTACX_site6637],7.54 ± 0.49
10,TACTACACACATTCATGTACTTGATAAATTAATGAT [XGTACX_site6444],7.74 ± 0.42
11,ATAACTAATATGAAATGTACCCATCAAAGTGTGCAT [XGTACX_site4463],7.74 ± 0.61
12,AAAATTAAAATACGTACACACCTTATCTTTTTGGCT [CACACA_site4311],8.21 ± 0.19
13,ATATTATAAATATAATGTACGTTTTAATTTCATGTT [XGTACX_site3557],7.66 ± 0.45
14,ATATATAATTATTGAAGTACTTGTTCATAAAATGGT [XGTACX_site5656],7.95 ± 0.45
15,AAAATAAAATGAAAACGTACATGATAAATTTTAATT [XGTACX_site4199],7.59 ± 0.67
16,TATATGAGCATAAAGACACACAAATAAAACCAAACA [CACACA_site3856],7.99 ± 0.52
17,TTTTGTTGAAAAAAAAAAAAAAAATTAAATTAAATT [GTGCAC_negctrl_site636],7.4 ± 0.55
18,CATAGACACGAACATACACACGGACATACATACGGA [CACACA_site8101],7.88 ± 0.67
19,GTAACAAATTAATAGTGTACATATTTTAAAAAAATA [XGTACX_site7150],7.79 ± 0.26
20,GTGTTAAATTTTTGAACATGCAAGTTTTATTATTGA [TGCATGCA_site478],7.58 ± 0.56
